The values below come from paper PMC6919601, “Identification of Plasmodium dipeptidyl aminopeptidase allosteric inhibitors by high throughput screening” (PLoS ONE, 2019).

In all, about 110,000 compounds went through this assay and about 230 (0.21%) showed an effect of 50% or more. Some of the results follow.
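Further: 30 min substrate incubation versus DMSO and 10 µM JCP410 controls.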

In this experiment the target is DPAP1 (Plasmodium falciparum, UniProt Q8IIJ9). The experiment in a line: primary screen, percent inhibition; read by cleavage of a fluorogenic dipeptide substrate; higher = more effect of the substance. Details: species or system P. falciparum D10 trophozoite lysates; single well.
DPAP1, sequence (Q8IIJ9 whole entry, looked up): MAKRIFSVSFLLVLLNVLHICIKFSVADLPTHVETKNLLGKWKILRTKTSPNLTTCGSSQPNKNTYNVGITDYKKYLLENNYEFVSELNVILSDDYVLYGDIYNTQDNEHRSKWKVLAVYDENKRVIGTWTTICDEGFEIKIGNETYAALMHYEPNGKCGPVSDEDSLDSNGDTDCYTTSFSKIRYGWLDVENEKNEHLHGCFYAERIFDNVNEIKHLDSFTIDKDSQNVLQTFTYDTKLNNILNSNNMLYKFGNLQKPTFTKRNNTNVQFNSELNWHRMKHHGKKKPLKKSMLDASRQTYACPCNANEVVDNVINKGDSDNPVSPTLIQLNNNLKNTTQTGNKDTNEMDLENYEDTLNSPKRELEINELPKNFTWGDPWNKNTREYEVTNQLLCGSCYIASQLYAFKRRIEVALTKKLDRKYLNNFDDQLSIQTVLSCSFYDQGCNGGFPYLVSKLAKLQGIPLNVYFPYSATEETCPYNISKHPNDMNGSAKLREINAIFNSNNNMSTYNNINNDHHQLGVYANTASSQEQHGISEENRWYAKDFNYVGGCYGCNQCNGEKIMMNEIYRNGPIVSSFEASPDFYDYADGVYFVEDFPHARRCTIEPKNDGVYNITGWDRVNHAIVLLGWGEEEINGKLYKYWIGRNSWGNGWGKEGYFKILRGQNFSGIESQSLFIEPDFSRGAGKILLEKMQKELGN
Turning to `COc1ccc(/C=C2\CC/C(=C\c3ccc(OC)c(OC)c3)C2=O)cc1OC`, the “% Inhibition @ 10 uM” value was -2.12%.

Turning to `OCC1CCCCN1Cc1ccc(Cl)cc1Cl` (stereo not shown), the “% Inhibition @ 10 uM” value was -1.5%.

Regarding `COc1ccc(OC)c(N2Cc3ccc(OC)c(OC)c3C2=O)c1`, the “% Inhibition @ 10 uM” value is listed as -5.73%.

As to `CC(=O)Nc1ccc(CN2CCc3ccccc3C2)cc1`, the “% Inhibition @ 10 uM” value was -1.07%.

Take `CC(=O)N1CCN(Cc2c(F)cccc2Cl)CC1`: the “% Inhibition @ 10 uM” value is listed as -3.15%.

On to `O=C1C2CCCCC2C(=O)N1CNc1ccc(F)cc1` (stereo not shown), for which the “% Inhibition @ 10 uM” value is given as -6.18%.

Regarding `CC(=O)c1cc(-c2ccccc2)n(CC(=O)N2CCC(C)CC2)c1C`, the “% Inhibition @ 10 uM” value is 3.07%.

Consider `CN(CC(=O)O)C(=O)c1cn(-c2ccccc2)nc1-c1ccccc1`, for which the “% Inhibition @ 10 uM” value is given as -2.77%.

Turning to `CCC(=O)N1c2ccccc2N=C2CC(C)(C)CC(O)=C2C1c1cc(OC)ccc1OC` (stereo not shown), the “% Inhibition @ 10 uM” value is recorded as -2.8%.

For `CCc1ccc(C2C3=C(O)CCCC3=NC(C)=C2C(=O)Nc2ccccc2OC)cc1` (stereo not shown), the “% Inhibition @ 10 uM” value was determined as 0.726%.

Take `COc1ccc(CC(C)(NC(=O)OCc2ccccc2)C(=O)NCC#N)cc1OC` (stereo not shown): the “% Inhibition @ 10 uM” value turned out to be 0.079%.

Regarding `CCC(C)Oc1ccc(/C=C2/SC(=O)N(CC)C2=O)cc1OC` (stereo not shown), the “% Inhibition @ 10 uM” value was -1.88%.

For the compound `O=C1CC(N2CCN(c3ccccn3)CC2)C(=O)N1c1ccccc1` (stereo not shown), the “% Inhibition @ 10 uM” value is -5.14%.

Consider `CCN(/C=N/c1sc2c(c1C#N)CCCC2)CC`, for which the “% Inhibition @ 10 uM” value is reported as -6.22%.

On to `CCOc1ccc(/C=C2/C=C(c3ccc(F)cc3)OC2=O)cc1`, for which the “% Inhibition @ 10 uM” value is 1.84%.

Consider `COc1cc(/C=C2\NC(=S)NC2=O)cc(OC)c1`, for which the “% Inhibition @ 10 uM” value amounted to 3.42%.

As for `COc1ccc(C(=O)NCCC2(c3ccc(C)cc3)CCOC(C)(C)C2)cc1` (stereo not shown), the “% Inhibition @ 10 uM” value is 1.83%.

With `C=CCSc1nc(O)c(Cc2ccccc2)c(O)n1`, the “% Inhibition @ 10 uM” value is on record as -5.26%.

For `O=C(CSc1nc(-c2ccc(F)cc2)[nH]c1-c1ccccc1)Nc1nccs1`, the “% Inhibition @ 10 uM” value is given as -3.39%.

As to `Cc1ccc(Nc2nc(-c3ccc(F)cc3)cs2)cc1`, the “% Inhibition @ 10 uM” value was determined as 3.92%.

`CCOc1cccc(-c2nc(S)c3c(n2)Oc2c(O)cccc2C3)c1`: the “% Inhibition @ 10 uM” value is reported as 4.23%.

Take `O=C(NC(=O)c1ccc(Cl)cc1Cl)OC[C@@H]1CCCN2CCCCC12` (stereo partly shown): the “% Inhibition @ 10 uM” value was found to be 4.19%.

On to `O=C1OC(c2ccc(Cl)c(Cl)c2)=N/C1=C\c1ccc2c(c1)OCO2`, for which the “% Inhibition @ 10 uM” value was -3.33%.

As to `CC12c3ccccc3C(c3ccccc31)C1C(=O)N(c3ccc4c(c3)OCO4)C(=O)C12` (stereo not shown), the “% Inhibition @ 10 uM” value is reported as 10.1%.

As to `CCCCNC(=O)CN1N=C(c2ccc(Cl)cc2)CCC1=O`, the “% Inhibition @ 10 uM” value came to 2.18%.

`Cc1ccc(OCC(O)CN2CCN(CCN3C(=O)c4cccc5cccc(c45)C3=O)CC2)c(C)c1` (stereo not shown): the “% Inhibition @ 10 uM” value is -5.23%.

Take `O=C(C1CCCN1S(=O)(=O)c1cccc2cccnc12)N1CC=C(c2ccccc2)CC1` (stereo not shown): the “% Inhibition @ 10 uM” value is given as 0.981%.

On to `CSCCC(NS(=O)(=O)c1cccs1)C(=O)NCc1ccccc1Cl` (stereo not shown), for which the “% Inhibition @ 10 uM” value is on record as 1.76%.
